{"source": "paper PMC4336329", "about": "(PLoS ONE, 2015)", "note": "The whole screen tested about 310,000 compounds, of which about 2,200 (0.71%) showed an effect of 50% or more. The effect is printed as a negative number. This is one part of the list."}
{"biological_target": "human ether-à-go-go-related gene (hERG) potassium channel (human, UniProt Q12809)", "sequence (Q12809 whole entry, looked up)": "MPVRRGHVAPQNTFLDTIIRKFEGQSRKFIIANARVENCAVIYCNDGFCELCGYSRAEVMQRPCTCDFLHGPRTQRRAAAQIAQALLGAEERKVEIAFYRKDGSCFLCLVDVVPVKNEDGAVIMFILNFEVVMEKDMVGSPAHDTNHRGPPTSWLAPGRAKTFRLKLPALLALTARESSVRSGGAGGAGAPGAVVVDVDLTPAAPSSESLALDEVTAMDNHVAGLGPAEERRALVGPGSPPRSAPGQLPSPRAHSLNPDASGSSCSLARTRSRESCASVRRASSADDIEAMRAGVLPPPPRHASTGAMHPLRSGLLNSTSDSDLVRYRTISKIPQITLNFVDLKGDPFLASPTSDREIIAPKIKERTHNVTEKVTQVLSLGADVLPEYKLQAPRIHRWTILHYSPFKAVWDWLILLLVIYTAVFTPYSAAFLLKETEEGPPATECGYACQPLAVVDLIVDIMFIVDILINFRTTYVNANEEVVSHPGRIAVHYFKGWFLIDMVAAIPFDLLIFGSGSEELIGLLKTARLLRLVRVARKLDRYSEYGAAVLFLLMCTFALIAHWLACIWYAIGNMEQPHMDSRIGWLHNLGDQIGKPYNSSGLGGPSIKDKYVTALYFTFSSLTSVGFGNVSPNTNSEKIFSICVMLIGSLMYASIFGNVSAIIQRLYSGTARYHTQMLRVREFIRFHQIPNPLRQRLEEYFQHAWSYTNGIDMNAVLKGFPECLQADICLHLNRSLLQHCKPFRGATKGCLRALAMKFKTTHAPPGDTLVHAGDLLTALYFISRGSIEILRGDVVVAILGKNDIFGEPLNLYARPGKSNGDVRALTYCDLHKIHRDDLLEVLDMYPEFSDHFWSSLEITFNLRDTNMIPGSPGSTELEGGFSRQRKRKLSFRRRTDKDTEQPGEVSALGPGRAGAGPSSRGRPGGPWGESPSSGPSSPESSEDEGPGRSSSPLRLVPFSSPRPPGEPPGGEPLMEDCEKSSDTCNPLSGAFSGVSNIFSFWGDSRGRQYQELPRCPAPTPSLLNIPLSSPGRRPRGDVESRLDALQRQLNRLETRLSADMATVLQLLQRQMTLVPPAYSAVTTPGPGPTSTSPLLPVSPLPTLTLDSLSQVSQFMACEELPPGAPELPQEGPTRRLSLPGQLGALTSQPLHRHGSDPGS", "experiment": "primary screen, population patch clamp on CHO cells stably expressing hERG", "units": {"hERG current change (%, negative = inhibition) at 1uM": "%"}}
{"smiles": "CCO[C@@H]1OC(C(=O)NC2CC2)=C[C@H](C2CCCCC2)[C@H]1CCCO", "hERG current change (%, negative = inhibition) at 1uM": -1.03}
{"smiles": "O=C1NN(c2ccc(Br)cc2)C(=O)/C1=C\\c1ccc(O)cc1O", "hERG current change (%, negative = inhibition) at 1uM": 18.8}
{"smiles": "CC(=O)N1C(O)CC(C)N1c1ccccc1", "note": "(stereo not shown)", "hERG current change (%, negative = inhibition) at 1uM": 16.5}
{"smiles": "CN(C(=O)c1ccc(NC(=O)Cc2cccc(NC(=O)C3CCN(C(=O)C4CCC4)CC3)c2)cc1)C1CCCC1", "hERG current change (%, negative = inhibition) at 1uM": 13.2}
{"smiles": "COc1ccc(-c2cc(-c3cc(F)ccc3O)[nH]n2)cc1OC", "hERG current change (%, negative = inhibition) at 1uM": 2.06}
{"smiles": "O=[N+]([O-])c1cc(S(=O)(=O)N2CCCC2)ccc1NN=C1CCCC1", "hERG current change (%, negative = inhibition) at 1uM": 6.85}
{"smiles": "O=C(Nc1ccccc1SCC1CSc2nc3ccccc3c(=O)n21)c1ccccc1", "note": "(stereo not shown)", "hERG current change (%, negative = inhibition) at 1uM": -24.7}
{"smiles": "Clc1cc(Cl)cc(C2=NC(Cc3ccccc3)CO2)c1", "note": "(stereo not shown)", "hERG current change (%, negative = inhibition) at 1uM": 17.3}
{"smiles": "O=C(NCCOCc1ccccc1)C(c1ccccc1)c1ccccc1", "hERG current change (%, negative = inhibition) at 1uM": 2.92}
{"smiles": "CS(=O)(=O)Cc1ccc(C(=O)NC2CCSc3ccccc32)cc1", "note": "(stereo not shown)", "hERG current change (%, negative = inhibition) at 1uM": -1.68}
{"smiles": "COc1ccc(C)cc1NC(=O)CSc1ccc(-c2sc(C)nc2C)nn1", "hERG current change (%, negative = inhibition) at 1uM": 5.92}
{"smiles": "Cc1c(N/C(=N/S(=O)(=O)c2ccc(F)cc2)c2ccccc2)c(=O)n(-c2ccccc2)n1C", "hERG current change (%, negative = inhibition) at 1uM": 14.3}
{"smiles": "O=C(NC1CCCC1)c1ccc(CS(=O)(=O)c2cccc(C(F)(F)F)c2)o1", "hERG current change (%, negative = inhibition) at 1uM": 4.26}
{"smiles": "Cc1c(NS(=O)(=O)c2ccc3c(c2)n(C)c(=O)n3C)c(=O)n(-c2ccccc2)n1C", "hERG current change (%, negative = inhibition) at 1uM": 6.72}
{"smiles": "Cc1ccn(CC(=O)O)c(=O)c1", "hERG current change (%, negative = inhibition) at 1uM": -5.52}
{"smiles": "Cc1ccc(C)c(S(=O)(=O)N/N=C/c2ccc(N3CCOCC3)cc2)c1", "hERG current change (%, negative = inhibition) at 1uM": 16.9}
{"smiles": "COc1cc(OC)cc(C(=O)NNC(=O)CN2C(=O)NC(C)(c3ccccc3)C2=O)c1", "note": "(stereo not shown)", "hERG current change (%, negative = inhibition) at 1uM": 21.7}
{"smiles": "COc1ccc(-c2csc(NC(=O)CCn3cnc4ccccc4c3=O)n2)cc1OC", "hERG current change (%, negative = inhibition) at 1uM": 14.1}
{"smiles": "COC(=O)COc1c(Cl)cc(Cl)c2ccc(C)nc12", "hERG current change (%, negative = inhibition) at 1uM": -3.07}
{"smiles": "C=CCn1c(O)c(C(CC)=Nc2cc(OC)ccc2OC)c(=O)[nH]c1=O", "hERG current change (%, negative = inhibition) at 1uM": 15.9}
{"smiles": "COc1ccc(NC(=O)C2C3C=CC(C3)C2C(=O)O)cc1", "note": "(stereo not shown)", "hERG current change (%, negative = inhibition) at 1uM": 10.1}
{"smiles": "Cc1ccc(Nc2nc(C)cc(C)n2)c(Br)c1", "hERG current change (%, negative = inhibition) at 1uM": 10.5}
{"smiles": "O=[N+]([O-])c1ccc(Cl)c(S(=O)(=O)n2ccnc2)c1", "hERG current change (%, negative = inhibition) at 1uM": 9.82}
{"smiles": "CC(C(=O)OCC(=O)Nc1ccc2c(c1)OCO2)N1C(=O)c2ccccc2C1=O", "note": "(stereo not shown)", "hERG current change (%, negative = inhibition) at 1uM": 10.6}
{"smiles": "COc1ccc(C(CCNCc2ccccc2)c2ccc(F)cc2)cc1", "note": "(stereo not shown)", "hERG current change (%, negative = inhibition) at 1uM": -17.7}
{"smiles": "CC(=O)Nn1cc2c(c1-c1ccccc1)c(=O)n(C)c(=O)n2C", "hERG current change (%, negative = inhibition) at 1uM": -4.59}
{"smiles": "COc1ccc(C(=O)NNC(=O)c2cc3ccccc3cc2O)cc1", "hERG current change (%, negative = inhibition) at 1uM": 16.4}
{"smiles": "COc1cccc(NC(=O)CCN2CCC(C(N)=O)CC2)c1", "hERG current change (%, negative = inhibition) at 1uM": 16.9}
{"smiles": "CC(=O)c1cccc(NC(=O)Nc2ccc(C)cc2)c1", "hERG current change (%, negative = inhibition) at 1uM": 0.196}
{"smiles": "COC(=O)[C@@H]1OC(=O)[C@H]2O[C@@]23[C@@]1(C)CC[C@@H]1[C@@]2(C)C=CC(=O)OC(C)(C)[C@@H]2CC(=O)[C@]13C", "hERG current change (%, negative = inhibition) at 1uM": 18.5}
{"smiles": "CCc1cc2c(=O)c(-c3nc4ccccc4n3C)c(C)oc2cc1OC(C)=O", "hERG current change (%, negative = inhibition) at 1uM": 8.15}
{"smiles": "Cc1ccc(C(=O)OCC(=O)NCCN2C(=O)CSC2=O)cc1", "hERG current change (%, negative = inhibition) at 1uM": 5.68}
{"smiles": "COc1ccc(NC(=O)c2nc(S(=O)(=O)Cc3cccc(C)c3)ncc2Cl)c(OC)c1", "hERG current change (%, negative = inhibition) at 1uM": 22}
{"smiles": "COc1ccc(-n2c3c(cc(C(=O)Nc4cccc(C)n4)c2=O)C(=O)CC(C)(C)C3)cc1", "hERG current change (%, negative = inhibition) at 1uM": 7.5}
{"smiles": "COc1cccc(NC(=O)c2cc(-c3ccncc3)nc3c(C)cc(C)cc23)c1", "hERG current change (%, negative = inhibition) at 1uM": 9.54}
{"smiles": "Brc1ccc(-c2ccc(/C=N/Nc3nncc(-c4ccccc4)n3)o2)cc1", "hERG current change (%, negative = inhibition) at 1uM": 21}
{"smiles": "O=C(NCCCN1CCOCC1)C1CCC(=O)N1CCc1ccccc1", "note": "(stereo not shown)", "hERG current change (%, negative = inhibition) at 1uM": 14.9}
{"smiles": "CCOC(=O)N1CCC(NC(=O)CCc2c(C)nc3nc(C)nn3c2C)CC1", "hERG current change (%, negative = inhibition) at 1uM": 3.46}
{"smiles": "CNCCc1ccccn1.Cl", "hERG current change (%, negative = inhibition) at 1uM": 12.6}
{"smiles": "O=C(CSc1nc2[nH]ncc2c(=O)n1-c1ccccc1)c1ccc2c(c1)OCCO2", "hERG current change (%, negative = inhibition) at 1uM": 2.71}
{"smiles": "Cc1ccc(NC(=O)CSc2nnc3ccccn23)cc1", "hERG current change (%, negative = inhibition) at 1uM": 10.1}
{"smiles": "CNC(=O)c1sc(Nc2cc(C)ccc2C)nc1C", "hERG current change (%, negative = inhibition) at 1uM": 8.43}
{"smiles": "COC(=O)CCC(=O)NC(=S)Nc1ccc(S(=O)(=O)Nc2cc(OC)nc(OC)n2)cc1", "hERG current change (%, negative = inhibition) at 1uM": 18.2}
{"smiles": "Cc1cc([N+](=O)[O-])ccc1NC(=O)Nc1ccc(F)cc1F", "hERG current change (%, negative = inhibition) at 1uM": 14.9}
{"smiles": "O=C(NCC1CC1)C1(C(F)(F)F)C/C(=C\\Cc2ccccc2)CCCO1", "note": "(stereo not shown)", "hERG current change (%, negative = inhibition) at 1uM": 12.5}
{"smiles": "FC(F)(F)c1cnc2c(-c3ccc(Cl)cc3Cl)noc2c1", "hERG current change (%, negative = inhibition) at 1uM": 10.2}
{"smiles": "Cc1cccc(NC(=O)Nc2ccc3c(c2)CCC3)c1", "hERG current change (%, negative = inhibition) at 1uM": 10.1}
{"smiles": "COc1ccc(C(C(=O)NC2CCCCC2)N(C(=O)CCl)c2ccc(Cl)cc2)cc1", "note": "(stereo not shown)", "hERG current change (%, negative = inhibition) at 1uM": 0.511}
{"smiles": "Cc1cc(N2CCCCC2)n2nc(C)c(-c3ccccc3)c2n1", "hERG current change (%, negative = inhibition) at 1uM": 10.6}
{"smiles": "C=CCn1c(SCC(=O)Nc2cccc(C(=O)OC)c2)nnc1C(C)NC(=O)c1cccs1", "note": "(stereo not shown)", "hERG current change (%, negative = inhibition) at 1uM": -1.28}
{"smiles": "COc1cnc(-c2ccccn2)nc1NC(C)C", "hERG current change (%, negative = inhibition) at 1uM": 7.11}
{"smiles": "O=C(Nc1nnc(SCC(=O)N2CCCCC2)s1)c1cccs1", "hERG current change (%, negative = inhibition) at 1uM": 5.02}
{"smiles": "Cc1ccc(/C=c2\\sc3nc(-c4cccs4)nn3c2=O)o1", "hERG current change (%, negative = inhibition) at 1uM": -4.82}
{"smiles": "COc1cc2c(cc1NC(=O)c1cc(-c3ccncc3)nc3ccc(C)cc13)oc1ccccc12", "hERG current change (%, negative = inhibition) at 1uM": 7.89}
{"smiles": "COCCN(C(=O)c1snc(C(N)=O)c1N)C(C(=O)NC1CCCCC1)c1ccc(F)cc1", "note": "(stereo not shown)", "hERG current change (%, negative = inhibition) at 1uM": 13.1}
